{"source": "paper PMC12136788", "binders": {"B1": {"name": "chr11:46784615:46784616:-_ENSG00000175216_ENST00000415402|hu_mus|FALSE|FALSE (ssRNA)", "RNA": "GGGAGUUCUACAGUCCGACGAUCCUCAGUAAGAUGAUACUCUUCCUCACUCAGCAGGGUGAAAAGCAAUUUUAAAUAUUCCAGUGCUUUCAUUAGAACGCUUGUAUUGGUGUCGAAAAACCGGAGGGUAAGCCAUUUUAAGAUCAACAGAGGAUUGAGCAUCA"}, "B2": {"name": "chr1:171492454:171492455:+_ENSG00000117523_ENST00000367742|hu_hu|FALSE|FALSE (ssRNA)", "RNA": "GGGAGUUCUACAGUCCGACGAUCAUCAGCUUCAGCAUCUAGGUUAUCAAAUUUAUCAAGCUCCUUCAGUUCUGAUGCACUAAGAAUGGAUGGGCGUUCAGGCUCAGAGGCCCAUGAAGGAGGUGGGCCUCUUCCUCGAAGGCCCAACAGAGGAUUGAGCAUCA"}, "B3": {"name": "chr1:39494564:39494565:+_ENSG00000168653_ENST00000372967|hu_hu|hu_hu_hu_mus_True|18_78 (ssRNA)", "RNA": "GGGAGUUCUACAGUCCGACGAUCAUGCAUUCGCCUCAUCGUUUUGUACCGAAGCAAACACUCUACGAAGUCAUCGAACUCUAUCUUGCACUCCUUUUUCGCCCGGGUCCCACCGAUUCCAUGUGCACACUCUAUCCACUCUUUCAACAGAGGAUUGAGCAUCA"}, "B4": {"name": "chr16:94664741:94664742:+_ENSMUSG00000040785_ENSMUST00000117648|mus_hu|mus_mus_mus_hu_False|18_58 (ssRNA)", "RNA": "GGGAGUUCUACAGUCCGACGAUCUGGUACUGAUCUUGGUAGCUGAUAUUCAGGAGAAAGGCUGGCCAAGGGUGUAUAAAUGCUAGUGUACUGGGGCAAACCUGGUAACACGUUUAUGUACGCUGGUGGUGUCUGGGUGAUAUCCAACAGAGGAUUGAGCAUCA"}, "B5": {"name": "chr4:17845017:17845018:+_ENSG00000109805_ENST00000514176|hu_mus|hu_hu_hu_mus_False|48_98 (ssRNA)", "RNA": "GGGAGUUCUACAGUCCGACGAUCGCUCUCUUAACUUGAUCUUCAUUUAAGGAACUCUGCAAGGUUAAGUUUACUUUUCUGUAGCGCGCGGUUUUGGGCUCGUCUGGGUAAUCUCAUCUUCAUUUCUGAUGGUGGUUCAUGAUCCAACAGAGGAUUGAGCAUCA"}, "B6": {"name": "29043882_29044002_1640_3pUTR_ENSMUSG00000076431_ENSMUST00000067230|mouse|control|control (ssRNA)", "RNA": "GGGAGUUCUACAGUCCGACGAUCCGAGGCUGCGCGUAGGCUGGCGUAGCCGCGGUGGUCAGCGGGCGAUCGGCUGGCGGCUGGCGAUGAUGCUGCGCUGCUGCGGCCGCUCAGACUCCGGCCAUCGGGCGAGCAUCCCGGGCCCAACAGAGGAUUGAGCAUCA"}, "B7": {"name": "62931016_62931474_2432_CDS_ENSG00000061987_ENST00000546600|human|control|control (ssRNA)", "RNA": "GGGAGUUCUACAGUCCGACGAUCCAAGACAAGUUGCCAUGAUGUUCCAAGAACAGCCCCAUGGCAAUGCGCCAAGUUAAGUAAAGUCCUCAUACACUGGAUAUUUUUGGAAGUCAGCAUUACUGUCCCUUGAGGCUGGACUGCCAACAGAGGAUUGAGCAUCA"}, "B8": {"name": "chr11:31958201:31958202:+_ENSMUSG00000020297_ENSMUST00000020537|mus_hu|FALSE|FALSE (ssRNA)", "RNA": "GGGAGUUCUACAGUCCGACGAUCCAUCUUGCAAAAUGCACCAGAGGCCAGCACAUUUCACUAUGGGUUAUGUGCGUUCUGGGCUUAGUAAUGCCAAAAUCAGCUCUUCUCUCCAGCUCGGCCAUUCCUCAUUUCCUGCGGGCCCAACAGAGGAUUGAGCAUCA"}, "B9": {"name": "chr5:145543945:145543946:-_ENSG00000133706_ENST00000545646|hu_hu|hu_hu_hu_mus_True|8_8 (ssRNA)", "RNA": "GGGAGUUCUACAGUCCGACGAUCCUGAACGGCCAGUGGUGGGAAAUAAUCAAGCCAGUGCUCUGCUUCAGAAAACUUCACUAUGUCGUCAUCAGAGAGCCCAAGGGAUUUCAUAAUGUCCCACUGGUAUUUAGAAGAUCCUGCCAACAGAGGAUUGAGCAUCA"}, "B10": {"name": "70340692_70340812_512_CDS_ENSMUSG00000018286_ENSMUST00000018430|mouse|control|control (ssRNA)", "RNA": "GGGAGUUCUACAGUCCGACGAUCCUGCAGACAUUCGUCCUUGGUCAUGCCUUCCCGAUACGUAGCAUCAACAUAGCCAUAGAUGUACGAGCUCCCGGAGCCUCCGAUGGCAAAGGACUGUCUUACCAUCAUACCCCCCAUGGGCAACAGAGGAUUGAGCAUCA"}, "B11": {"name": "chr4:6323411:6323412:-_ENSMUSG00000028245_ENSMUST00000029910|mus_mus|motif|central (ssRNA)", "RNA": "GGGAGUUCUACAGUCCGACGAUCAUAUUUUUAAUGUAGAAAAGAUGAACCUUUAGUAGCAUAAUGAAAUAUAAACCAUUGCGGUACACAGUAACAGACUUAAUGUUAUUAAGAAUCUGGGCACGCAGCACUGCCGAAAGGAACCAACAGAGGAUUGAGCAUCA"}, "B12": {"name": "chr1:36394379:36394380:+_ENSG00000092847_ENST00000373204|hu_hu|FALSE|FALSE (ssRNA)", "RNA": "GGGAGUUCUACAGUCCGACGAUCCAGGAGCCAUCAAAUACCCAGUGCAAAAUUUCCUAAAAUAUGAUACAAAAGUAUAAACUAGAACAGAAAAAAGCAACAAACGGAGCUUUAAUAAAUUCACAAAAUUUUAAACUUUUGCUCCAACAGAGGAUUGAGCAUCA"}, "B13": {"name": "chr5:32761720:32761721:+_ENSMUSG00000014956_ENSMUST00000015100|mus_hu|FALSE|FALSE (ssRNA)", "RNA": "GGGAGUUCUACAGUCCGACGAUCGAGGCUGUCCACGUUCAGCUCCCCGUCCGCCAUCUUGUCGGCACAGACUCUCCUUCCCAGCAGCGGGAACAAGGGCUUCUCGGCGGCGGAGGCUGCGGCGACGGCUCGGCGUUCUCUCACCAACAGAGGAUUGAGCAUCA"}, "B14": {"name": "chr10:1038552:1038553:+_ENSG00000107937_ENST00000545048|hu_hu|motif|central (ssRNA)", "RNA": "GGGAGUUCUACAGUCCGACGAUCCAUAGAACGGAUGAAUAUCAUCCAAUUUGGGGAAAUCUGUUAGAAUUUGUGAAAGUCGGUCAUGGUAAUUCUGUUGAGUAAAUUUGACUUUUCUCAUGUAAAAAUGUCUAAUGCGAUGUACAACAGAGGAUUGAGCAUCA"}}, "note": "This is one part of the list.", "data": [{"biological_target": "T1, UNK ZnF1-3 (human, UniProt Q9C0B0 31-174)", "T1 sequence": "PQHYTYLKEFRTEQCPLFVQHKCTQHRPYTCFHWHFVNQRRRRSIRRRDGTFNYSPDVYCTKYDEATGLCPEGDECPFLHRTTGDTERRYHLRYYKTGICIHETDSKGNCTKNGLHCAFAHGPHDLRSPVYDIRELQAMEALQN", "test": "nsRBNS (natural sequence RNA bind-n-seq); RBNS binding buffer (assumed for nsRBNS): 25 mM Tris pH 7.5, 150 mM KCl, 3 mM MgCl2, 0.01% Triton X-100, 500 ug/ml BSA, 20 U/ml SUPERase-In, 4 C; UNK is unkempt and MSI1 is Musashi-1; names of the RNAs are library labels; protein concentration not given here; high values mean tight binding", "units": {"binding signal": "enrichment R"}, "values": [{"binder": "B1", "binding signal": 1.29}, {"binder": "B2", "binding signal": 1.1}, {"binder": "B3", "binding signal": 0.651}, {"binder": "B4", "binding signal": 0.989}, {"binder": "B5", "binding signal": 0.35}, {"binder": "B6", "binding signal": 0.476}, {"binder": "B7", "binding signal": 0.548}, {"binder": "B8", "binding signal": 1.12}, {"binder": "B9", "binding signal": 1.07}, {"binder": "B10", "binding signal": 1.03}, {"binder": "B11", "binding signal": 0.88}, {"binder": "B12", "binding signal": 2.02}, {"binder": "B13", "binding signal": 0.503}, {"binder": "B14", "binding signal": 0.878}]}]}
